Assay results: the RNAGym collection of RNA variant scans (doi:10.1073/pnas.2313332121)
Variants at the floor of the assay are shown more often than the library holds them.

B1: TPR 5TU (parent)
chain: GGAUCUUCUCGAUCUAACAAAAAAGACAAAUCUGCCACAAAGCUUGAGAGCAUCUUCGGAUGCAGAGGCGGCAGCCUUCGGUGGCGCGAUAGCGCCAACGUUCUCAACUAUGACACGCAAAACGCGUGCUCCGUUGAAUGGAGUUUAUCAUG

Variants of: B1
Assay: polymerase ribozyme fitness, log enrichment relative to wild type (log ratio); higher = more active; in vitro selection for triplet polymerase activity
Summary of the method: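 Fitness compares each genotype's enrichment to that of the wild type on a logarithmic scale, averaging replicates with inverse-variance weights. The logarithm is base 2. Enrichment came from Illumina sequencing of input and output libraries after one triplicate round of in vitro selection, which included frozen incubation at −7 °C, of PCR-built, transcribed mutant libraries of each subunit of a heterodimeric triplet polymerase ribozyme. Only genotypes with ≥10 input reads and ≥1 read per output were kept.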

Point of comparison: U6G G141A, “polymerase ribozyme fitness (log ratio)” value 0.243. Against it:
- U6G C10U A28G G67C G94A — lower, ≤ -4.2
- U6A G48U G92U A121C A150C — lower, ≤ -4.2
- U7C U33G U61G C96G C105U — lower, ≤ -4.2
- U6C C10A A24U A110G — lower, ≤ -4.2
- U7G U45A G50A C57G G58C A73G — lower, ≤ -4.2
- U7C U9G G68U C85G C114G A115G C116G A120U — lower, ≤ -4.2
- U6G C14G G68A C75G C95U C108A — lower, ≤ -4.2
- U7G C8U A22C A24C A28U C63U A89U C95U G117U U139G — lower, ≤ -4.2
- U7A A19U A22U G68A C85G — lower, ≤ -4.2
- U6G A21U A26G A40C A66G A107U U135A G141A — lower, ≤ -4.2
- U7C G25U A66C C87U A115G — lower, ≤ -4.2
- U7G A29U U44A U61A G88C — lower, ≤ -4.2
- U6G U13A A52G G65A G83U C116A — lower, ≤ -4.2
- U7A C76A C96A G133C — lower, ≤ -4.2
- U6C C27U U53A G80U C93U — lower, ≤ -4.2
- U6G A41U C76A A147G — lower, ≤ -4.2
- U6G A26C A29G U44A A52U U53A A73G C93G — lower, ≤ -4.2
- U6G A40G C57A A73U U77G G84U C132G U134A — lower, ≤ -4.2
- U6G U7C U55A U135A — lower, -4.01
- U6G C14A U44G A52C C69G G71C G92U A120C G133A G141C — lower, ≤ -4.2
- C8A A142C — lower, -4.11
- U7A G71A G84A C99U U104G C108G — lower, ≤ -4.2
- U7C C35U C85A C105U U109G G141A G143U U146A A147U U148C — lower, ≤ -4.2
- U6A U56G U61A C76U C79U C85G G100C C108A — lower, ≤ -4.2
- U6C C27U U145C — lower, -3.08
- U6C U13C C14U G34A G80C A91G — lower, ≤ -4.2
- U6G C8U A16G G25U U56A G81A C87U — lower, ≤ -4.2
- U7G A26C A47G G83U — lower, ≤ -4.2
- U6C G11A C51U G86A A107U U139A U146C — lower, ≤ -4.2
- U6A C18U U55A C75G C87U C105G U135G — lower, ≤ -4.2
- U6G C35G G94A G140C — lower, ≤ -4.2
- U6G A16U A41U C87A A120C U139C A142U — lower, ≤ -4.2
- U6G C14A A37C C43A U53A C75G C87U G100C G126A G140U — lower, ≤ -4.2
- C8A A28G A40U G94A C131U — lower, ≤ -4.2
- C8A A21G A91C C118A C125U — lower, ≤ -4.2
- U7C C14G C27A G80C C85G C87A A120U A121G G141U — lower, ≤ -4.2
- U7C C18G G94A G117C — lower, -3.67
- U7G A21C C32A A49C U53C C69U A142C — lower, ≤ -4.2
- U6A U7C G83A C125A — lower, -3.64
- U7A A22U A64G C79A G81A C85G — lower, ≤ -4.2
- U7G C10U A21G A107G A115U — lower, ≤ -4.2
- U6G U45A A73G G86C C129A A150G — lower, ≤ -4.2
- C8A C14G A40U G84C U101C U139G — lower, ≤ -4.2
- U6G C32U C43U C93G U139C — lower, ≤ -4.2
- U6A C36U C54U U55G U90G — lower, ≤ -4.2
- C8A A17C C87A A98C A107U U109C A150G — lower, ≤ -4.2
- U6A A47C C54U C96A C99A G128A G136C — lower, ≤ -4.2
- U6A C14G A16U G62C G86U — lower, ≤ -4.2
- U7A A23C G50U G59A A73C G86U C95G C108U — lower, ≤ -4.2
- C8A A30G A40U C79A U82C — lower, ≤ -4.2
- U7C G34U A106U G141C — lower, ≤ -4.2
- U6G A41C G42A U56C C85A C99A — lower, ≤ -4.2
- U7G C87G C114G — lower, ≤ -4.2
- U6G C10G G50C U55A G58A C72G C95U C96U U144G U148A — lower, ≤ -4.2
- U7G A20C A40C G48U A64U A89U G92U U101C C132A — lower, ≤ -4.2
- U6G A26C G136A A142U U146A — lower, ≤ -4.2
- U7C A40G G42U C85A G112C C123A — lower, ≤ -4.2
- U6C U45G G68C G71U C96U C125U G141A — lower, ≤ -4.2
- U6A A52C G81U C85G — lower, -3.49
- C8A A17U A26U G48U G68U C93G C132G G141C U148G — lower, ≤ -4.2
- U7G A26C C57A U61G — lower, ≤ -4.2
- U6A C18A A19U A37C C51U C75G G83A C96G G136U — lower, ≤ -4.2
- C8A A12U U61A C79U G84U C85G C118U A119G C129A G143C U148G — lower, ≤ -4.2
- U7G A40G C51A G84A C87U A98C A150C — lower, ≤ -4.2
- U6C C18U A47G G70U — lower, ≤ -4.2
- U6G C10U A12U U33G A37U C95A U135A G141U U144C — lower, ≤ -4.2
- U6C G11A A39U G50U C85U C103U — lower, ≤ -4.2
- U7A G58C U134G — lower, ≤ -4.2
- U6G A60G G62A C85A G92U — lower, ≤ -4.2
- U7G C69A A91C A107U U144C A150G — lower, ≤ -4.2
- U6G A23U A73G C76A A98G C105G A113C A119G — lower, ≤ -4.2
- U7A A49G C85G A91U G126C — lower, ≤ -4.2
- U7C C8A A22U C32G C43U G46A C93G G94U U101G U145A — lower, ≤ -4.2
- U6C C87A G88U C96A A120U C123U — lower, ≤ -4.2
- C8A A29C C32U A52G U55A G86A A91U A110G C114A C123U — lower, ≤ -4.2
- U6G A21C A66C G71A C103A — lower, ≤ -4.2
- U6G A29G — lower, -3.97
- U7C G50A G84U C87A U151A — lower, ≤ -4.2
- U6C U13A G25C A49C U55C G58A C95U A113U — lower, ≤ -4.2
- U6G G100A A107U A113U — lower, ≤ -4.2
- U6G A12U A20U C51A C96A G100U C118A U148C — lower, ≤ -4.2
- U6G A22U C51A A66C C69U — lower, ≤ -4.2
